According to PubChem BioAssay AID1240 (Sanford-Burnham Center for Chemical Genomics, 2008):
Hit rate of the full screen: of about 50,000 compounds, about 800 (1.6%) showed an effect of 50% or more. The list shows a part of the results.

target: Bcl-2-like protein 10 (Homo sapiens) (UniProt Q9HD36); assay: TR3 peptide-Bcl-B binding displacers, biochemical primary FP assay, phenotype converters (AID 1240); conditions: GST-Bcl-B / FITC-TR3 peptide fluorescence polarization; stronger effect = higher value; compound at 3.75 mg/L;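 also: 0% = Bcl-B with tracer peptide and DMSO and 100% = tracer peptide lacking Bcl-B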
Sequence of UniProt Q9HD36 (Q9HD36 whole entry, looked up): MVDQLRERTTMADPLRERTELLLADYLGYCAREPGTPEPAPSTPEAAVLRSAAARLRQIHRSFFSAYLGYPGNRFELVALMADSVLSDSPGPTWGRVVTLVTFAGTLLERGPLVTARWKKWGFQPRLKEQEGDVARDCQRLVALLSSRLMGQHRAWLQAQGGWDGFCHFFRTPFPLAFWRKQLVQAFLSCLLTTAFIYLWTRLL

Row | SMILES | displacement [%]
1 | NCCCCNc1ccc([N+](=O)[O-])cc1 | 16.6
2 | O=C(c1cccs1)N1CCN(S(=O)(=O)c2ccc(Cl)cc2)CC1 | -2.9
3 | Cc1ccc(NCCC(=O)c2cccc([N+](=O)[O-])c2)c(C)c1 | -13.5
4 | Cc1c(NC(=O)c2ccc(Br)o2)cccc1-c1nc2ccccc2s1 | 7.1
5 | COc1ccc(CN2CCN(C3CCN(Cc4ccccc4)CC3)CC2)cc1 | -17.8
6 | O=C(Nc1nc2ccccc2n1Cc1ccc(Cl)cc1)c1ccccc1 | 14.7
7 | CC(C)c1ccc(/C=C(\NC(=O)c2ccccc2)C(=O)NCCCn2ccnc2)cc1 | 4.9
8 | Cc1cccc(NC(=O)C2CC=CCC2C(=O)O)c1 (configuration not stated) | 1.1
9 | COc1cc(CN2CCN(S(=O)(=O)c3ccccc3)CC2)cc(OC)c1OC | 5
10 | COc1ccc(C(=O)N/N=C/c2ccc(N(C)C)cc2)c(OC)c1 | -2.6
11 | COc1ccc(/C=C(\NC(=O)c2ccc([N+](=O)[O-])cc2)C(=O)NCCCN2CCOCC2)cc1 | 9.8
12 | COc1ccc(/C=C/C(=O)NCc2ccccn2)cc1OC | 11.8
13 | Cc1cc(C=C2C(=O)NC(=S)NC2=O)c(C)n1-c1ccc(Br)cc1 | 21
14 | CC(=O)Nc1ccc(NS(=O)(=O)c2ccc3ncccc3c2)cc1 | 2.4
15 | CCOc1cc(/C=N/NC(=O)Cc2cccc3ccccc23)cc(I)c1O | 1.7
16 | C=CCN1C(=O)/C(=C\c2ccc(OC(=O)c3ccc(Cl)cc3Cl)cc2)SC1=S | 5.4
17 | COc1cccc(C(=O)O/N=C(\N)c2ccccc2)c1 | 12.2
18 | CCCCC1CCC(C(=O)Nc2ncccn2)CC1 (configuration not stated) | 0.5
19 | CCOC(=O)c1nn(-c2ccccc2)cc1O | -7.7
20 | CC1CCCN(C(=O)Cc2ccccc2)C1 (configuration not stated) | -9.7
21 | CC(C)C(C(=O)O)N1C(=O)/C(=C/c2ccccc2C(=O)O)SC1=S (configuration not stated) | -8.9
22 | CC(=O)NC(C)c1ccc(Cl)c(Cl)c1 (configuration not stated) | 5.1
23 | COC(=O)c1ccc(C(=O)OC)c(NC(=O)C(C)Oc2ccccc2)c1 (configuration not stated) | 12.4
24 | COc1ccc(C/C(N)=N/OC(=O)COc2ccc3ccccc3c2)cc1 | 12.3

Row | SMILES | displacement [%]
25 | CN(C)c1ccc(/C=C2\C(=O)NC(=S)N(c3ccc(Br)cc3)C2=O)cc1 | 12.1
26 | CCOc1cc(C=C2C(=O)NC(=O)NC2=O)ccc1OCc1cccc2ccccc12 | 58.6
27 | COC(=O)c1cc(NC(=O)COc2ccc(Br)cc2)cc(C(=O)OC)c1 | 4.3
28 | O=C(Nc1ccc(O)cc1C(=O)O)c1ccc(Cl)c(Cl)c1 | 5.1
29 | Cc1ccc(OCC(=O)Nc2sc3c(c2C#N)CCCC3)cc1C | 6.2
30 | O=C(Nc1ccccc1)c1ccc(CN2CCN(Cc3ccccc3)CC2)cc1 | 2.9
31 | Cc1ccc2c(c1)c1c(n2CN2CCCCC2)C(=O)CCC1 | 6.7
32 | O=C(c1ccc(N2CCN(C(=O)c3ccccc3F)CC2)cc1)c1cccc(F)c1 | -53.4
33 | N/C(=N\N=C\c1c[nH]c2ccccc12)c1nonc1N | 10.5
34 | O=C(Nc1ccc(-c2nc3ncccc3o2)cc1)c1ccc(-c2cccc(Cl)c2)o1 | 14.3
35 | CS(=O)(=O)N(CC(=O)O)c1ccccc1Br | 12.6
36 | COc1c(C2=CC(=O)N(C)C2=O)c2c(n1C)C(=O)c1ccccc1C2=O | 8.7
37 | COc1ccc(C(=O)O/N=C(\N)Cc2ccc(Cl)cc2Cl)cc1 | -3.5
38 | COC(=O)c1sccc1NC(=O)c1sc2ccccc2c1Cl | -5.8
39 | CCN(C)c1ccc(C=C2C(=O)NC(=O)NC2=O)cc1 | 10.1
40 | CN(C)c1ccc(CNC(=O)C(O)(c2ccc(F)cc2)c2ccc(F)cc2)cc1 | -1.3
41 | CCOC(=O)c1sc(N/N=C/c2cccc(O)c2)nc1C | 0
42 | CC(=O)Cc1cc(O)c2ccccc2c1OC(=O)c1ccccc1 | -8.9
43 | CCOc1cc([N+](=O)[O-])cc(/C=C2\SC(=S)N(C)C2=O)c1O | 1.9
44 | CN1C(=O)C(O)(CC(=O)c2ccc(F)cc2)c2ccccc21 (configuration not stated) | 8.4
45 | O=C(NC1CCCCC1)c1ccc2nc3ccccc3nc2c1 | 81.5
46 | CC(=O)c1ccc(N2C(=O)c3ccc(-c4nc5ccccc5c(=O)o4)cc3C2=O)cc1 | 8.4
47 | CC(=O)N1CCN(c2ccc(NC(=O)c3ccc4c(c3)OCCO4)cc2)CC1 | -1.2
48 | CCOc1ccc(C2Nc3ccccc3NC3=C2C(=O)CC(c2ccc(OC)cc2)C3)cc1 (configuration not stated) | -13.6

Row | SMILES | displacement [%]
49 | CCC(C)NS(=O)(=O)c1ccc(Br)cc1 (configuration not stated) | 17.4
50 | CCOc1cc(OCC)cc(C(=O)Nc2ccc(Br)cn2)c1 | 6
51 | Cc1ccc(N(Cc2ccc(C(=O)Nc3cccnc3)cc2)S(C)(=O)=O)cc1C | 12.5
52 | COc1ccc(S(=O)(=O)N2CCN(Cc3ccc(SC)cc3)CC2)cc1 | -3.5
53 | COc1ccc(CCNC(=O)CSc2cccc3cccnc23)cc1OC | 8.5
54 | Cc1cc(Cl)ccc1NC(=O)CSCc1cccc(Br)c1 | -3.6
55 | O=C(NCc1ccccc1)c1ccc(-c2ccc([N+](=O)[O-])cc2)o1 | 1.6
56 | Cc1ccc(NC(=O)CSc2nnnn2-c2ccccc2)c([N+](=O)[O-])c1 | 12.4
57 | Cc1cc(/C=C2\C(=O)NC(=O)N(c3cccc(Cl)c3)C2=O)c(C)n1-c1cccnc1 | -3.4
58 | CC(C)CC(C1=C(O)CCCC1=O)C1=C(O)CCCC1=O | -5.4
59 | CS(=O)(=O)N(Cc1ccc(C(=O)Nc2ccc(CC#N)cc2)cc1)c1ccccc1 | -7
60 | O=C(NCc1cccnc1)c1cccc(Cl)c1 | -3
61 | Cc1ccnc(NC(=O)COc2ccc(C)cc2C)c1 | -0.6
62 | CCOc1ccc2nc(SCc3ccc(OC)cc3)sc2c1 | -11
63 | CCN(CC)CCOc1c(C)cc(Cl)cc1Cl | 0.5
64 | CCOC(=O)C(CCCOc1ccc(F)cc1)C(=O)OCC | 11.6
65 | COc1ccccc1N1CCN(C(=O)c2c(Cl)cccc2Cl)CC1 | 14
66 | CC(C)(C)c1ccccc1OCCCCN1CCOCC1 | 5.8
67 | Fc1ccc(-c2nnc(-c3ccc4c(c3)OCO4)o2)cc1 | 24.1
68 | CCC(=O)CC(O)(c1ccccc1)C(F)(F)C(F)F (configuration not stated) | -13.6
69 | CCCCOc1ccc(S(=O)(=O)N=Nc2c(O)n(C)c3ccccc23)cc1 | 4.5
70 | COC(=O)c1c(C)oc2cc(Br)c(OCc3ccc([N+](=O)[O-])cc3)cc12 | 8.8
71 | Cc1ccc(OCC(=O)O/N=C(\N)c2ccccn2)c(Br)c1 | 5.2
72 | CCOC(=O)C1C(=O)C=C(/C=C/c2ccccc2)CC1c1ccc(Cl)cc1 (configuration not stated) | -7.2
